Molecules are shown by their SMILES. “And” between values parts separate entries of the source, which are not always exact repeats. Identical values can stand only once.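 Five concentrations, 48 hours, 96-well plates. GI50 = concentration required for 50% inhibition of growth. TGI: concentration producing complete growth inhibition.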 Square brackets hold non-standard residues; d marks the D form. Peptide text beside a SMILES is read from it. * marks the point of attachment. Phe(4-NO2) = N[CH](Cc1ccc([N+](=O)[O-])cc1)C(=O)O; Cbz = O=C(OCc1ccccc1)* Where only a bound is given, the exact number is not on record here.

We go through 82 molecules from PubChem BioAssay (NCI).

This experiment has as its system NCI-H322M lung. Description: growth of human tumour cells (NCI), 48 h.
The molecule `O=C(/C=C/c1ccc(O)c(O)c1)OCc1ccccc1` registered a TGI of 67.4 µM. Same read-out and setting: the same measure for `CC1=C(C(=O)Nc2ccccc2C)C(c2ccc(C3C(C(=O)Nc4ccccc4C)=C(C)NC(C)=C3C(=O)Nc3ccccc3C)cc2)C(C(=O)Nc2ccccc2C)=C(C)N1`: 23.4 µM.

For the molecule `Cc1nc2ccccn2c1NC(=O)NNC(=S)Nc1ccc(Br)cc1`, the GI50 is 99.8 µM and the TGI is > 100 µM.

`C[C@@H](N)C1CCC(C(=O)Nc2ccncc2)CC1` (stereo not given in full): the GI50 is > 82.1 µM and the TGI is > 100 µM. Take `CCN1CCN(c2nc3ccccc3nc2C(=O)c2ccc(OC)cc2)CC1`: the TGI is > 100 µM. Still for that read-out and setting: with `O=C1CCCC2=C1CC1=C(CCCC1=O)N2c1ccccc1C(=O)O` the figure was > 100 µM; with `COc1cccc(C(=O)Nc2c3ccccc3nc3ccccc23)c1OC`, > 100 µM; with `COc1ccc(/C=N/n2c(=O)[nH]c3ccccc3c2=O)cc1`, > 100 µM. Still for that read-out and setting: with `CCSC(SCC)c1cc2c(cc1Br)OCO2` the figure was 72.7 µM.

For `CC(=O)NC(CCCCN(Cc1ccccc1)C(=O)NCCCl)C(=O)NCc1ccccc1` (stereo not given), the TGI is > 100 µM.

With `CCCc1cc(=O)oc2c(C=O)c(O)cc(O)c12`, the TGI was determined as 74.7 µM. For `O=C(N/N=C/c1ccccc1O)C(O)(c1ccccc1)c1ccccc1`, the GI50 is 3.11 µM and the TGI was > 100 µM. Take `CN(C)CC1CCCC(CN2CCCCC2)C1=O` (stereo not given): the TGI is > 100 µM.

On to `Cc1cccc(NC(=S)Nc2ccc([N+](=O)[O-])cc2)n1`, for which the TGI was > 100 µM.

As to `CC1=CC(=O)CC(C)(C)C1(O)/C=C/C(C)=C/C(=O)O` (stereo not given), the TGI was > 100 µM. Still for that read-out and setting: with `O=C(CSc1nnc(Cc2ccccc2)o1)Nc1cccc(Cl)c1` the figure was > 100 µM.

For `CO/[N+]([O-])=C\C(=O)N/C=C/C(=O)O`, the TGI is > 100 µM. The same measure, in the same setting: the same measure for `COc1cccc(NC(=O)C(C)(C)C)c1C=O`: > 100 µM. Turning to `O=C(CCCCCCCn1cc(-c2cccnc2)nn1)Nc1ccccc1-c1ccccc1`, the GI50 was 8.38 µM and the TGI turned out to be 97.4 µM. `COc1ccc(/C=N/N=C(\N)NO)c(Cl)c1O`: the TGI was > 100 µM.

As for `CS/C(C#N)=C(\C#N)SC`, the TGI was > 100 µM. Still for that read-out and setting: the same measure for `CC1=C(C(=O)Nc2ccccc2)C(c2ccc([N+](=O)[O-])cc2)C(C(=O)Nc2ccccc2)=C(C)N1`: > 100 µM; for `O=C(Cc1ccccc1)N[C@@H]1COC(=O)[C@@H]2CCCN2C(=O)[C@@H]2CCCN2C1=O` (HELM PEPTIDE1{[O=C(Cc1ccccc1)[*:2]].[O=C([C@@H](CO[*:3])N[*:1])[*:2]].P.P}$PEPTIDE1,PEPTIDE1,2:R3-4:R2$$$V2.0): > 100 µM; for `CCN1C(=S)n2cccc2C1CC(=O)c1ccc(Cl)cc1` (stereo not given): > 100 µM. For `COc1ccc(CCN2CCCN3C2=Nc2ccccc2S3(=O)=O)cc1`, the GI50 is 0.736 µM and the TGI is > 100 µM. The corresponding values for `COc1cc2c(F)nccc2cc1C(=O)N[C@@H](c1ccc(F)c(Cl)c1)[C@@H]1C[C@@H](O)CN1` are 12.1 µM and 35.7 µM. As to `COc1cc(Br)c(CC2(C#N)c3ccccc3C3C(N2C(=O)c2ccccc2)C3(Cl)Cl)cc1OC` (stereo not given), the TGI was > 65.5 µM. As for `O=C1/C(=C\c2ccc(F)cc2)CN(C(=O)c2ccc([N+](=O)[O-])cc2)C/C1=C\c1ccc(F)cc1`, the GI50 was 38.5 µM and the TGI came out at 98.9 µM. In the same order, the values of `COC(=O)[C@H]1[C@@H](O)[C@@]2(O)c3c(OC)cc(O[C@@H]4O[C@@H]([C@H](O)CO)CO[C@H]4OC)cc3O[C@@]2(c2ccc(OC)cc2)[C@@H]1c1ccccc1` are 0.00306 µM and 0.0211 µM. Molecule `COc1ccc(/C=C/C(=O)C(C)(C)CN2CCCCC2)cc1` returned a TGI of 57.3 µM.

For `COc1c2ccoc2cc2oc(=O)ccc12`, the TGI is > 100 µM. `Nc1nc(Cl)cc(NCCCCCNc2cc(Cl)nc(N)n2)n1` showed a TGI of 91.7 µM.

For the molecule `COc1c2c3ccccc3nc-2n(C)c2ccccc12`, the GI50 is 7.06 µM and the TGI was found to be 34.2 µM. Regarding `CCOC(=O)CCC(NC(=O)OCc1ccccc1)C(=O)NC(CCC(=O)OCC)C(=O)NC(Cc1ccc([N+](=O)[O-])cc1)C(=O)NC(CCC(=O)OCC)C(=O)NC(CCC(=O)OCC)C(=O)OCC` (stereo not given) (Cbz-E(OEt)E(OEt)[Phe(4-NO2)]E(OEt)E(OEt)-OEt; configuration not given here), the TGI is > 100 µM. As to `O=C(NCCc1ccccc1)[C@H]1CCCC[C@@H]1CCO`, the TGI is > 100 µM.

For `Cc1ccc(S(=O)(=O)Oc2ccc([N+](=O)[O-])cc2[N+](=O)[O-])cc1`, the GI50 was 14.1 µM and the TGI was found to be 29 µM.

Consider `Cc1ccc(-n2c3nc(=O)n(C)c(=O)c-3nc3ccccc32)cc1`, for which the TGI came out at 67 µM. As for `CCOC(=O)C(NC(=O)C(CCCCNP(=O)(OCC)OCC)NC(=O)C(C)NC(C)=O)C(C)C` (stereo not given), the TGI is > 100 µM. Regarding `N=C(N)/N=C(\N)c1c(-c2cc(O)ccc2O)nc2sccn12`, the GI50 is 22.9 µM and the TGI came to 60.4 µM. As to `Cc1cc(N)ccc1N=Nc1ccc(S(=O)(=O)CCOS(=O)(=O)O)cc1`, the TGI amounted to 31.2 µM. On the same count and under the same terms, with `Cc1ccc2c3c(cnc2n1)C(=O)OCCN3C` the figure was > 100 µM; with `NC(=O)c1ccc(NS(=O)(=O)c2ccc(N)cc2)nc1`, > 100 µM. `CN1CCC(CNc2ccc3ncc(-c4cccc(OC(F)(F)F)c4)n3n2)CC1`: the GI50 was 3.07 µM and 3.41 µM; the TGI is 13.2 µM and > 10 µM.

`C=C(C)[C@@H]1CC[C@]2(C(N)=O)CC[C@]3(C)[C@H](CC[C@@H]4[C@@]5(C)CC[C@H](O)C(C)(C)[C@@H]5CC[C@]43C)[C@@H]12`: the GI50 is 2.59 µM and the TGI was determined as 13 µM. For `CCOC(=O)/C(C=Nc1c(C)n(C)n(-c2ccccc2)c1=O)=C(/O)c1ccccc1`, the TGI is > 100 µM. Still for that read-out and setting: with `CN(C)c1ncnc2c1Cc1ccccc1C(=O)N2C` the figure was > 100 µM; with `CC1(C)C(C#N)=[N+]([O-])C(C)(C)N1O`, > 100 µM; with `COc1c(C)c2c(c3c1c(=O)c1ccccc1n3C)C=CC(C)(C)O2`, 90.6 µM.

`C=CCOc1ccc(/C(N=Nc2ccc(C)cc2)=N/NC(=O)c2ccccc2)cc1OC`: the TGI is > 100 µM. As for `CC(C)(C)OC(=O)[C@@H]1CCC(=S)N1Cc1ccccc1`, the TGI was > 100 µM. Still for that read-out and setting: the same measure for `COc1cc2c3c(c4ccc(OC)c(OC)c4c2cc1OC)CN1CCC[C@@H]1C3`: > 33.9 µM.

On to `CC(/C=C/C(=O)c1sc(-n2nc(-c3ccccc3)cc2-c2ccccc2)nc1C)=C\c1ccccc1`, for which the TGI is > 100 µM.

Regarding `Nc1ccc(Oc2ccc(C3(c4ccc(Oc5ccc(N)cc5)cc4)C4CC5C6CC7CC5C3C(C7)C6C4)cc2)cc1`, the TGI is > 100 µM. With `CCOC(CCCNCCCn1c2c(c3cc(OC)c(OC)cc3c1=O)C(=O)c1cc3c(cc1-2)OCO3)OCC`, the GI50 is 6.8 µM and the TGI is 13.2 µM.

In the case of `O=C1C=CC(=O)c2c1cc([N+](=O)[O-])c1ccoc21`, the TGI is 39.3 µM. The same measure, in the same setting: with `O=C1OC2C(O)COC2(O)C1(O)C(C[N+](=O)[O-])c1ccc(Cl)cc1` (stereo not given) the figure was 32.2 µM; with `Cc1ccc(-c2cc(-c3ccc(Cl)cc3)nc(/N=C3\C(=O)N(CN4CCOCC4)c4ccccc43)n2)cc1`, > 100 µM.

With `Cc1ccc2c(c1)C(C)Cc1c(ncnc1-n1cnc3cc(C)ccc31)N2C` (stereo not given), the GI50 is 0.0525 µM and the TGI turned out to be 18.4 µM.

Consider `O=C(c1ccc(OCCN2CCCCC2)cc1)c1c(-c2ccc(O)cc2)sc2cc(O)ccc12`, for which the GI50 was 13 µM and 15.8 µM; the TGI is 26.1 µM and 30.6 µM. Take `Fc1ccc(-c2nn3c(CNc4ccccc4)nnc3s2)cc1`: the GI50 is 6.22 µM and the TGI was determined as 93.2 µM. In the same order, the values of `NCCCCCCCCn1c2c(c3ccccc3c1=O)C(=O)c1ccccc1-2` are 2.53 µM and 5.72 µM. Consider `N=c1oc2c(Br)cc(Br)cc2cc1C(=O)Nc1ccccn1`, for which the TGI is > 100 µM. The same measure, in the same setting: with `CNC1C(O)C(NC)C2OC3(O)C(=O)CC(C)OC3OC2C1O` (stereo not given) the figure was > 100 µM.

With `COc1cccc(Cn2c(-c3nonc3N)nc3ccccc32)c1`, the GI50 was 0.893 µM and the TGI was > 100 µM.

Turning to `CN(C)CCCNC(=O)c1cc(NC(=O)c2cc(NS(=O)(=O)c3ccc4c(c3)C(=O)c3ccccc3C4=O)cn2C)cn1C`, the TGI was > 100 µM. Turning to `Cc1c(C#N)c(N)[nH]c(=S)c1C#N`, the TGI is > 100 µM. Still for that read-out and setting: the same measure for `CC1(C)Oc2ccc3c(=O)c(-c4ccccc4)c(-c4ccccc4)oc3c2C1C(=O)O` (stereo not given): > 100 µM; for `COC(=O)C(=O)C(C(=O)C1=NS(=O)(=O)c2cc(S(N)(=O)=O)c(Cl)cc2N1)c1nc2ccc(C(=O)c3ccccc3)cc2[nH]c1=O` (stereo not given): > 100 µM; for `Cc1[nH]n(C2=NCCN2)c(=O)c1C`: > 100 µM.

In the case of `Cc1c(-c2ccccc2)c(=O)oc2ccc(Cl)cc12`, the TGI was > 100 µM. Take `CN[C@@H](C)C(=O)N[C@H]1CN(C(=O)CC(C)C)CC[C@H]2CC[C@@H](C(=O)NC(c3ccccc3)c3ccccc3)N2C1=O`: the GI50 is > 100 µM and the TGI is > 100 µM.

For `Cc1cc(=O)oc2cc(SC(=O)N(C)C)ccc12`, the TGI was > 100 µM. As to `Nc1ccccc1SC(CC(=O)c1ccccc1)c1ccc([N+](=O)[O-])cc1` (stereo not given), the GI50 was 15.6 µM and the TGI is 29.9 µM. With `CC1(C)O[C@H]([C@H](O)c2nnc3ccc(Cl)nn23)[C@@H]([C@H]2COC(C)(C)O2)O1`, the TGI is > 100 µM.

Consider `COc1cc2c(c(OC)c1O)-c1ccc(OC)c(=O)cc1[C@@H](NC(=O)C(F)(F)F)CC2`, for which the TGI was > 100 µM. Take `O=C1/C=C/[C@@H](O)[C@@H]2C[C@@H](O)C[C@H]2/C=C/CCC[C@H](CCc2ccc(C(F)(F)F)cc2)O1`: the GI50 was 0.156 µM and the TGI is 20 µM. Take `CCC(=O)C1(N2CCOCC2)CCN(CCCC(=O)c2ccc(F)cc2)CC1`: the TGI was > 100 µM.

In the case of `O=C(O)C1=C(C(=O)Nc2ccccc2)C2C=CC1C2` (stereo not given), the TGI was > 100 µM. Take `COC(=O)C(Cc1ccccc1)NC(=O)C(CCC(=O)OCc1ccccc1)NC(=O)OC(C)(C)C` (stereo not given): the TGI is > 100 µM. Take `CCN1C(=O)N(CC)C2C1NN=c1s/c(=C\c3ccccc3F)c(=O)n12` (stereo not given): the GI50 is 0.0781 µM and the TGI was > 100 µM. As for `Cc1nc2c(O)cc3c4c(=O)n(C)c(=O)n(C)c4n(Cc4ccccc4)c3c2nc1C`, the TGI was found to be 87.5 µM. Still for that read-out and setting: with `CCC(=O)C1(c2ccccc2)CCN(C)CC1` the figure was > 100 µM.
